Paper PMC4242493
The list shows a part of the results. The list includes weakly bound sequences.

Each sequence was assayed against MaxL homodimer (UniProt P61244) (assay: universal protein-binding microarray (PBM)). Conditions: PBS-based mixture, 10 nM His-tagged protein dimer, 2% milk, 200 ng/uL BSA, 50 ng/uL salmon testes DNA, 0.02% TX-100; detection with Alexa 488 anti-His …; high values mean tight binding; most listed sequences are background and not binding sites; double strand, one strand shown.
Sequence of UniProt P61244 (P61244 whole entry): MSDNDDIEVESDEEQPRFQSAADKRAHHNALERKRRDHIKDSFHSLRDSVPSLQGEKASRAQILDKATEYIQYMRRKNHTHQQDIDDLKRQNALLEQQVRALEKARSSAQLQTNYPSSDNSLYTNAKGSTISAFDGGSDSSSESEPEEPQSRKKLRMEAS
For ATAGTAAG, the binding signal (normalized occupancy) was 0.0776. Sequence ACCTTATG has a binding signal (normalized occupancy) of 0.0812. ACCGCAAC showed a binding signal (normalized occupancy) of 0.0732. Sequence CAGCCTGA has a binding signal (normalized occupancy) of 0.0752. CGTTAGAC gave a binding signal (normalized occupancy) of 0.0747. ACCAGGGC was tested, and the binding signal (normalized occupancy) was 0.0733. AATTCTGG gave a binding signal (normalized occupancy) of 0.0737. Sequence GCAATAGC has a binding signal (normalized occupancy) of 0.0744. With AAAGCATT the binding signal (normalized occupancy) was 0.0756. GTAATTGA was tested, and the binding signal (normalized occupancy) was 0.0751. GCATAACA gave a binding signal (normalized occupancy) of 0.0808. AGGCGTAC gave a binding signal (normalized occupancy) of 0.0691. With AGCGGTAG the binding signal (normalized occupancy) was 0.0702. Work on CATATAAG yielded a binding signal (normalized occupancy) of 0.0879. Work on ACATCTAG yielded a binding signal (normalized occupancy) of 0.0794. Work on CGCGACCC yielded a binding signal (normalized occupancy) of 0.0794. GCAAGTAA gave a binding signal (normalized occupancy) of 0.0728. In the case of TCAATTAA, the binding signal (normalized occupancy) is reported as 0.0721. In the case of ATACGCGA, the binding signal (normalized occupancy) is reported as 0.0737. GACTCCCA was tested, and the binding signal (normalized occupancy) was 0.0753. TCGTGAGA was tested, and the binding signal (normalized occupancy) was 0.0809. ACATGCGT showed a binding signal (normalized occupancy) of 0.127. CTCGTGGC was tested, and the binding signal (normalized occupancy) was 0.119. GCATGACA showed a binding signal (normalized occupancy) of 0.088. Sequence CACTCTGG has a binding signal (normalized occupancy) of 0.0716. Sequence AGGCGTTA has a binding signal (normalized occupancy) of 0.0751. CACTTTAA showed a binding signal (normalized occupancy) of 0.0746. With ATAAAACC the binding signal (normalized occupancy) was 0.0743. CAACTTCG showed a binding signal (normalized occupancy) of 0.0721. For ATGACCGC, the binding signal (normalized occupancy) was 0.0805. Work on CTATTCCA yielded a binding signal (normalized occupancy) of 0.0808. For CTCTTCAC, the binding signal (normalized occupancy) was 0.0783. In the case of ATCGAATG, the binding signal (normalized occupancy) is reported as 0.0791. GTCCGGAA gave a binding signal (normalized occupancy) of 0.0658. Work on GAAGCCGC yielded a binding signal (normalized occupancy) of 0.0703. CTGCAAGC gave a binding signal (normalized occupancy) of 0.0718. With CAAAACAC the binding signal (normalized occupancy) was 0.0759. For GGTCGTTA, the binding signal (normalized occupancy) was 0.0762. Sequence ATACGTGG has a binding signal (normalized occupancy) of 0.0842. For CAGGCGCA, the binding signal (normalized occupancy) was 0.0718. With AACTAGTC the binding signal (normalized occupancy) was 0.0713. ACATACCT was tested, and the binding signal (normalized occupancy) was 0.0797. With CCGTCGGA the binding signal (normalized occupancy) was 0.0712. In the case of GGCCCTTA, the binding signal (normalized occupancy) is reported as 0.0762. In the case of CATCGAAC, the binding signal (normalized occupancy) is reported as 0.082. With AACCCCTG the binding signal (normalized occupancy) was 0.0755. CCAGTCTA was tested, and the binding signal (normalized occupancy) was 0.0717. For GTGACGTA, the binding signal (normalized occupancy) was 0.0803. For GCTGGAAC, the binding signal (normalized occupancy) was 0.0707. With AGTGAGTG the binding signal (normalized occupancy) was 0.0734. In the case of CTCACGAA, the binding signal (normalized occupancy) is reported as 0.0733. AAAATCCC gave a binding signal (normalized occupancy) of 0.0763. In the case of CCGTATTA, the binding signal (normalized occupancy) is reported as 0.0751. Sequence GGGGTAGA has a binding signal (normalized occupancy) of 0.0824. CAGGAAAC gave a binding signal (normalized occupancy) of 0.071. Work on GGCCCGCA yielded a binding signal (normalized occupancy) of 0.0711. CATCCCCA gave a binding signal (normalized occupancy) of 0.0811. AACCACAA was tested, and the binding signal (normalized occupancy) was 0.0762. Sequence AATCGGGT has a binding signal (normalized occupancy) of 0.0718. ACGTGCAC gave a binding signal (normalized occupancy) of 0.113. Work on CCAGCACC yielded a binding signal (normalized occupancy) of 0.0726. For AGGTATCC, the binding signal (normalized occupancy) was 0.0786. Work on CCCAGCAC yielded a binding signal (normalized occupancy) of 0.0816. Sequence CACTTGTA has a binding signal (normalized occupancy) of 0.0798. Work on CAAAGACA yielded a binding signal (normalized occupancy) of 0.0767. Work on GAGTCAGA yielded a binding signal (normalized occupancy) of 0.0718. Sequence GCTACAGC has a binding signal (normalized occupancy) of 0.072. AAATTCCA gave a binding signal (normalized occupancy) of 0.0772. GTTGTGTA gave a binding signal (normalized occupancy) of 0.08. For CTGGGACA, the binding signal (normalized occupancy) was 0.073. Sequence AGATCTGA has a binding signal (normalized occupancy) of 0.0793. For ATTGTGGC, the binding signal (normalized occupancy) was 0.0759. AATAGGCC was tested, and the binding signal (normalized occupancy) was 0.0758. CTGAACAA showed a binding signal (normalized occupancy) of 0.0787. For GAAGATAC, the binding signal (normalized occupancy) was 0.0737. With ATAAAGCG the binding signal (normalized occupancy) was 0.0719. CATCAACC was tested, and the binding signal (normalized occupancy) was 0.0787. CTGAAGCA gave a binding signal (normalized occupancy) of 0.0733. CGGTCTGA gave a binding signal (normalized occupancy) of 0.0686. With AGGAGCCG the binding signal (normalized occupancy) was 0.0692. Work on GGCCGCGA yielded a binding signal (normalized occupancy) of 0.0696. Work on GAGCTGAC yielded a binding signal (normalized occupancy) of 0.075. Sequence GATACTCA has a binding signal (normalized occupancy) of 0.0757. In the case of GAGTCTTA, the binding signal (normalized occupancy) is reported as 0.0751. CCCACAAC was tested, and the binding signal (normalized occupancy) was 0.0789. AGATTACC gave a binding signal (normalized occupancy) of 0.0753. ACTTGTCG gave a binding signal (normalized occupancy) of 0.0703. AATTGTGT was tested, and the binding signal (normalized occupancy) was 0.0778. With ATTCATCG the binding signal (normalized occupancy) was 0.0765. In the case of ACCAAGCC, the binding signal (normalized occupancy) is reported as 0.0728. AGTGGTCG showed a binding signal (normalized occupancy) of 0.0719. Sequence GACCCGAC has a binding signal (normalized occupancy) of 0.0717. For CAACACAC, the binding signal (normalized occupancy) was 0.091. With AAGGTAGA the binding signal (normalized occupancy) was 0.0772. With CTCACACA the binding signal (normalized occupancy) was 0.0809. For GATGTGCC, the binding signal (normalized occupancy) was 0.0796. For ATTCCAGG, the binding signal (normalized occupancy) was 0.0758. AGCTAACA showed a binding signal (normalized occupancy) of 0.0752. With CGAAGTTA the binding signal (normalized occupancy) was 0.0712. Sequence ATTTACGA has a binding signal (normalized occupancy) of 0.0753. Sequence ATCGGAGC has a binding signal (normalized occupancy) of 0.0669. ACGTGGCC showed a binding signal (normalized occupancy) of 0.094. For CGTAGGAG, the binding signal (normalized occupancy) was 0.0692. Work on CTCTACCC yielded a binding signal (normalized occupancy) of 0.0753. CACCTTAA gave a binding signal (normalized occupancy) of 0.0763. Sequence GGCAACGA has a binding signal (normalized occupancy) of 0.0726. GTACCGAC was tested, and the binding signal (normalized occupancy) was 0.0693. CGCGCAAG showed a binding signal (normalized occupancy) of 0.0678. AGATGGCT gave a binding signal (normalized occupancy) of 0.0821. GGACGAAA was tested, and the binding signal (normalized occupancy) was 0.0678. In the case of CGTTCTAC, the binding signal (normalized occupancy) is reported as 0.0752. Sequence CACATATA has a binding signal (normalized occupancy) of 0.0878. In the case of AACTCGAG, the binding signal (normalized occupancy) is reported as 0.0767. Sequence GAGTAAGC has a binding signal (normalized occupancy) of 0.072. With TACGCGAA the binding signal (normalized occupancy) was 0.0699. AGGACGCC gave a binding signal (normalized occupancy) of 0.0678. For CGCTCCCA, the binding signal (normalized occupancy) was 0.0722. With CTACAATC the binding signal (normalized occupancy) was 0.0744. With AACCCGTC the binding signal (normalized occupancy) was 0.0785. In the case of GGCCTCAA, the binding signal (normalized occupancy) is reported as 0.0706. In the case of AGGCGTGC, the binding signal (normalized occupancy) is reported as 0.0963. Work on ACCTATCG yielded a binding signal (normalized occupancy) of 0.0765. For AATGCTCC, the binding signal (normalized occupancy) was 0.0717. For GTGCCATA, the binding signal (normalized occupancy) was 0.0859. Work on GTACCCCA yielded a binding signal (normalized occupancy) of 0.0809. With AGGGGAAC the binding signal (normalized occupancy) was 0.0733. Work on CGAGGCGC yielded a binding signal (normalized occupancy) of 0.0686. CTTCTTGC gave a binding signal (normalized occupancy) of 0.072. CGGAGATA gave a binding signal (normalized occupancy) of 0.0723. With GGCAAGAA the binding signal (normalized occupancy) was 0.0731. GTCGCTTA gave a binding signal (normalized occupancy) of 0.0717. Work on AACAACCT yielded a binding signal (normalized occupancy) of 0.0766. ACTGTCCC showed a binding signal (normalized occupancy) of 0.073. For CGTCGTTA, the binding signal (normalized occupancy) was 0.0753. CGCCGTTC showed a binding signal (normalized occupancy) of 0.0719. GTGTACAC showed a binding signal (normalized occupancy) of 0.0784. TATCTAAA showed a binding signal (normalized occupancy) of 0.0766. AATTGATA showed a binding signal (normalized occupancy) of 0.0754. In the case of GAACTGAA, the binding signal (normalized occupancy) is reported as 0.0697. For CACCCATG, the binding signal (normalized occupancy) was 0.1. With CGAGTTTA the binding signal (normalized occupancy) was 0.0726. For CGGTCGAA, the binding signal (normalized occupancy) was 0.0683. For CATGCCCA, the binding signal (normalized occupancy) was 0.0953. Sequence ACCTGCAA has a binding signal (normalized occupancy) of 0.0779. For GTGGCAGA, the binding signal (normalized occupancy) was 0.085. Sequence GCTACAGA has a binding signal (normalized occupancy) of 0.0764. CAAGGCAC showed a binding signal (normalized occupancy) of 0.0689. With GCGATTAA the binding signal (normalized occupancy) was 0.0741. With ACCCGGGC the binding signal (normalized occupancy) was 0.069. AACCTTAC gave a binding signal (normalized occupancy) of 0.0724. With GAGTGCGA the binding signal (normalized occupancy) was 0.073. With ACAACAAA the binding signal (normalized occupancy) was 0.0724. GACTCCAA showed a binding signal (normalized occupancy) of 0.0705. ACTCGTTC showed a binding signal (normalized occupancy) of 0.0746. CAGTTTGA was tested, and the binding signal (normalized occupancy) was 0.0703. For TAGCACCA, the binding signal (normalized occupancy) was 0.0737. AGTGCGTC gave a binding signal (normalized occupancy) of 0.0753. For CTGGTGAA, the binding signal (normalized occupancy) was 0.0729. For ATGATGTC, the binding signal (normalized occupancy) was 0.0854. Work on AAGCTGGT yielded a binding signal (normalized occupancy) of 0.0639. GGAGCGCC was tested, and the binding signal (normalized occupancy) was 0.064. CCACATAA gave a binding signal (normalized occupancy) of 0.0799. Work on AGTTCCCC yielded a binding signal (normalized occupancy) of 0.0718. Sequence CACTTGTC has a binding signal (normalized occupancy) of 0.0792. TAACATGA showed a binding signal (normalized occupancy) of 0.0906. For ATGGGCTC, the binding signal (normalized occupancy) was 0.0751. With CATATGGA the binding signal (normalized occupancy) was 0.095. GTCGTCTA was tested, and the binding signal (normalized occupancy) was 0.0703. With AAGAAATC the binding signal (normalized occupancy) was 0.0706. GGATCATA was tested, and the binding signal (normalized occupancy) was 0.0808. CCTTCGTA gave a binding signal (normalized occupancy) of 0.0697. For AATTTTTA, the binding signal (normalized occupancy) was 0.0734.
